Source: PubChem BioAssay AID493208 (National Center for Advancing Translational Sciences (NCATS), 2011)
Among all 44,000 compounds or so, about 340 (0.77%) were called active. About 5% were inconclusive and are not listed. Calls follow the shape of the dose curve; as a rule, active = well fitted inhibition curve with a large enough effect; inconclusive = small, poorly fitted or top-dose-only effect; inactive = flat fitted curve, though single readings scatter. This is one part of the list.

Assay: Acumen qHTS Assay for Inhibitors of the mTORC1 Signaling Pathway in MEF (Tsc2-/-, p53-/-) Cells: Sytravon; also: nearly all actives have a fitted effect of over 50% in size;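 as to activity change, negative = inhibition: plate controls were DMSO for no effect and rapamycin for full effect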
Conditions: phospho-rpS6 immunofluorescence/PI, 24 h; series mostly up to 38.3 µM; activity change, negative = inhibition: at the top concentration
Outline: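 Readout is phospho-S6 Alexa 488 signal normalized to PI per well, reported as % active cells with thresholds set from rapamycin (7.5 nM) and DMSO controls. Cells: Tsc2-/-, p53-/- MEFs, 24 hrs compound at 37 C; PI cell number serves as viability.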
Potency is read from the fitted curve at half-maximal effect.

Row | SMILES | activity change, negative = inhibition | Potency
1 | Cn1c(C(=O)NCCc2ccccc2)cc2cc(S(=O)(=O)N3CCCCC3)ccc21 | inactive: 15.3% | 
2 | Cc1cccc(NC(=O)C(=O)NCC(c2cccnc2)N2CCN(Cc3ccccc3)CC2)c1 (stereo unspecified) | inactive: 5.9% | 
3 | COc1ccc(Cl)cc1NC(=O)c1c(NCc2cccnc2)sc2c1CCCC2 | inactive: -12.1% | 
4 | CC(C)(C)OC(=O)N1CCC(c2c(C(=O)NCCc3ccsc3)cnn2-c2ccc(F)cc2F)CC1 | inactive: 0.273% | 
5 | COc1ccccc1C(=O)Nc1nnc(S(=O)(=O)N2CCCCC2)s1 | inactive: 8.16% | 
6 | CCOC(=O)c1c(Nc2ccc(OCC)cc2)nnc(-c2ccccc2)c1-c1ccccc1 | inactive: -8.65% | 
7 | COc1ccc2ncc3c(-c4ccccc4)nn(-c4ccc(C)c(C)c4)c3c2c1 | inactive: -0.521% | 
8 | COc1ccccc1NC(=O)CSc1ncc(CO)n1Cc1ccc(F)cc1 | inactive: 1.12% | 
9 | Cc1ccccc1NC(=O)Cn1c(=O)n(Cc2ccco2)c(=O)c2ccc(C(=O)NC3CCCC3)cc21 | inactive: -5.86% | 
10 | Cc1cccc(N2CCN(C(=O)C3CCN(S(=O)(=O)Cc4ccccc4)CC3)CC2)c1C | inactive: 3.84% | 
11 | Cc1cc(-c2ccccc2)nc2cc(C(=O)Nc3ccc(Cl)c(Cl)c3)nn12 | inactive: -11.5% | 
12 | CCOC(=O)c1cnc2cc(Cl)c(OC)cc2c1Nc1ccc(Br)cc1C | inactive: -3.03% | 
13 | COc1ccccc1N1CCN(C(=O)C2CCN(S(=O)(=O)c3cccs3)CC2)CC1 | inactive: -7.58% | 
14 | COc1ccccc1C(=O)NC1(C(F)(F)F)C(=O)NC(C)=C1C#N (stereo unspecified) | inactive: -0.512% | 
15 | COc1cc(OC)c(NC(=O)c2nn(C)c3c2COc2ccccc2-3)cc1Cl | inactive: -3.37% | 
16 | Cc1ccccc1NC(=O)Cn1nnc(C(=O)NCc2ccco2)c1N | inactive: -21.3% | 
17 | COc1ccc(Cn2nc3n(c2=O)-c2ccccc2OC3)cc1 | inactive: 3.14% | 
18 | Cc1cccc(C(=O)Nc2nnc(S(=O)(=O)N3CCOCC3)s2)c1 | inactive: 3.64% | 
19 | Cc1ccc(C)c(Cn2c(=O)n(CCc3ccccc3)c(=O)c3c(C)c(C)sc32)c1 | inactive: -1.91% | 
20 | O=C(Nc1ccccc1)c1cc2c(-c3ccccc3)nn(-c3ccccc3)c2s1 | inactive: 1.08% | 
21 | Cc1ccc(-c2nnc(Nc3cccc(Br)c3)c3ccccc23)cc1S(=O)(=O)N1CCN(C)CC1 | inactive: 1.85% | 
22 | O=C(CSc1c2c(nc3ccc(Cl)cc13)CCCC2)N1CCN(c2ccc(Cl)cc2)CC1 | inactive: 1.46% | 
23 | CCOc1ccc(OC(=O)c2sc3ncn(Cc4cccc(F)c4)c(=O)c3c2C)cc1 | inactive: -6.43% | 
24 | COc1ccc(OC)c(NC(=O)C(Cc2ccccc2)NS(=O)(=O)c2ccc3c(c2)CCC(=O)N3)c1 (stereo unspecified) | inactive: -14.2% | 

Row | SMILES | activity change, negative = inhibition | Potency
25 | CCn1cc2nc(SCc3c(F)cccc3Cl)n(CCc3ccccc3)c(=O)c2n1 | inactive: -3.23% | 
26 | O=C(Nc1ccc(Br)cc1)Nc1nc2c(s1)CCCCCC2 | inactive: -0.193% | 
27 | CCN(CC)S(=O)(=O)c1ccc2c(c1)N(CC(=O)Nc1cccc(C(C)=O)c1)C(=O)CO2 | inactive: 5.16% | 
28 | O=C(COCc1cc(-c2ccc3c(c2)OCO3)on1)Nc1cccc(O)c1 | inactive: -15.7% | 
29 | CCC(=O)N1c2ccccc2CC1C(=O)NCCCN1CCN(c2ccc(F)cc2)CC1 (stereo unspecified) | inactive: 0% | 
30 | COc1ccc(Cl)cc1S(=O)(=O)Nc1ccc2c(c1)n(C)c(=O)n2C | inactive: -0.101% | 
31 | COc1ccc(NC(=O)C(=O)Nc2ccc3nc4n(c(=O)c3c2)CCCCC4)c(OC)c1 | inactive: -3.09% | 
32 | Cc1cccc(C(=O)n2nc(-c3ccco3)nc2NCc2ccccc2)c1 | inactive: 1.52% | 
33 | CCc1ccccc1NC(=O)Cn1cc(C(=O)c2ccncc2)c(=O)c2cc(C)ccc21 | inactive: 2.35% | 
34 | O=C(CCSCCc1ccccn1)Nc1ccccc1C(F)(F)F | inactive: 0.184% | 
35 | O=C(COCc1cc(-c2ccc(F)cc2)on1)Nc1cc(Cl)cc(Cl)c1 | inactive: 1.48% | 
36 | Cc1ccc(-n2ncc3c(NCCc4ccccc4)ncnc32)cc1Cl | inactive: 10.9% | 
37 | COc1ccc(CCNC(=O)c2cc(-c3ccc(C)cc3)nc3n[nH]c(-c4ccc(F)cc4)c23)cc1OC | inactive: 2.98% | 
38 | O=C(CCSCc1cccc(F)c1)NCCc1ccccc1 | inactive: -14.1% | 
39 | Cc1ccc(N2CC(C(=O)NCCS(=O)(=O)N3CCN(c4ccc(F)cc4)CC3)CC2=O)cc1 (stereo unspecified) | inactive: 0.828% | 
40 | COc1cc(OC)c(NC(=O)Cn2c(=O)nc(-c3ccccc3)c3ccccc32)cc1Cl | inactive: 7.62% | 
41 | COCCCNc1oc(-c2ccc(COc3ccccc3C)o2)nc1C#N | inactive: -9.87% | 
42 | CC1=C(C(=O)Nc2cccc(F)c2)C2(CCCCCC2)OC1=O | inactive: 1.97% | 
43 | COc1cccc(Cn2c(=O)n(-c3cc(C)cc(C)c3)c(=O)c3oc4ccccc4c32)c1 | inactive: -7.35% | 
44 | Cc1c(Cl)cccc1-c1ccc(C(=O)Nc2ccc3oc(-c4cccnc4)nc3c2)o1 |  | active: 13.1 µM
45 | CCC(CC)C(=O)Nc1cccc(-c2cn3cccnc3n2)c1 | inactive: -14.1% | 
46 | Cc1ccc2c(=O)c(C(=O)c3cccc(Cl)c3)cn(CC(=O)NCc3ccccc3)c2n1 | inactive: -0.846% | 
47 | CCc1ccc(NC(=O)C2CCN(c3ccc(Sc4ccc(C)cc4)nn3)CC2)cc1 | inactive: -10.6% | 
48 | COc1ccc(CCNC(=O)Cn2c(=O)cc(C(F)(F)F)c3c(C)nn(C)c32)c(OC)c1 | inactive: -7.43% | 

Row | SMILES | activity change, negative = inhibition | Potency
49 | CCc1ccc(C2=CC(c3cccc(OC)c3OC)n3c(nc4ccccc43)N2)cc1 (stereo unspecified) | inactive: 0.133% | 
50 | Cc1ccc(N2CCN(S(=O)(=O)c3nnc(NC(=O)c4cccc(F)c4)s3)CC2)cc1 | inactive: -6.05% | 
51 | O=C(Cn1cccc1C(=O)c1ccccc1)NCc1ccc(Cl)cc1 | inactive: 2.63% | 
52 | CCCN1CCN(CCCNC(=O)c2cc3c(=O)[nH]c4ccccc4c3s2)CC1 | inactive: -0.323% | 
53 | COc1ccc(NC(=O)CNC(=O)Cn2ccc3ccccc3c2=O)c(OC)c1 | inactive: -1.77% | 
54 | Cc1ccc(CNC(=O)c2cnc(N3CCCC3)nc2C)cc1 | inactive: 0.341% | 
55 | CCc1ccccc1NC(=O)c1nnn(CC(=O)Nc2c(C)cc(C)cc2C)c1N | inactive: -2.41% | 
56 | CN(C(=O)CSc1nc2ccc(NC(=O)c3ccco3)cc2s1)c1ccccc1 | inactive: -7.67% | 
57 | COc1cc(CNCCSc2nnnn2C)ccc1OCc1ccccc1 | inactive: -18.1% | 
58 | COc1ccc(N2CCN(C(=O)c3c(C)oc4ncn(CC(C)C)c(=O)c34)CC2)cc1 | inactive: 3.08% | 
59 | CCn1cc(C(=O)N2CCN(c3ccccc3OC)CC2)c2cc(OC)c(OC)cc2c1=O | inactive: -1.46% | 
60 | CCc1ccc(NC(=O)c2ccc(CNS(=O)(=O)c3ccc4c(c3)C(C)(C)C(=O)N4C)cc2)cc1 | inactive: -7.77% | 
61 | CCC(Oc1ccccc1)C(=O)Nc1nnc(S(=O)(=O)N2CCCC2)s1 (stereo unspecified) | inactive: -22.2% | 
62 | CCc1ccc(OCC(=O)Nc2c(C(=O)c3ccc(Br)cc3)oc3ccccc23)cc1 | inactive: 9.75% | 
63 | CCOc1cccc2sc(=NC(=O)c3ccc(S(=O)(=O)N4CCOCC4)cc3)n(C)c12 | inactive: -17% | 
64 | CCOC(=O)c1cnc2c(OC)cccc2c1N1CCN(c2ccccc2F)CC1 | inactive: 5.39% | 
65 | CCOC(=O)c1c(NC(=O)C(C)Oc2ccccc2F)sc(C(C)=O)c1C (stereo unspecified) | inactive: -9.91% | 
66 | COc1ccc(CCNC(=O)CCCCn2c(=O)c3ccccc3n(Cc3cccc(C)c3)c2=O)cc1OC | inactive: -12.9% | 
67 | COc1ccc(C(=O)Nc2ccc3c(c2)CCCN3S(=O)(=O)c2ccc(C)cc2)cc1 | inactive: 12.6% | 
68 | COc1ccc(NC(=O)c2oc3ccccc3c2NC(=O)c2cc(=O)c3ccccc3o2)cc1 | inactive: 3.79% | 
69 | CCCCN(CCCC)CCn1cnc2c([nH]c3ccc(OC)cc32)c1=O | inactive: -2.74% | 
70 | COc1ccc(CNC(=O)c2ccc(-c3nc(CSc4ccccc4)c(C)o3)cc2)cc1 | inactive: -4.31% | 
71 | CCc1ccc(-c2nc(CN3CCCC(C(=O)NCc4ccccc4Cl)C3)c(C)o2)cc1 (stereo unspecified) | inactive: -15.8% | 
72 | Cc1ccc2c(c1)-c1nc(-c3ccccc3)cc(-c3ccccc3)c1CO2 | inactive: 2.55% | 

Row | SMILES | activity change, negative = inhibition | Potency
73 | Cc1nn2c(=O)cc(COC(=O)c3ccccc3NC(=O)C3CCCCC3)nc2s1 | inactive: 9.09% | 
74 | CCOc1ccc(N(CC)S(=O)(=O)N2CCCC(C(=O)NCc3ccccc3OCC)C2)cc1 (stereo unspecified) | inactive: -17.9% | 
75 | COc1cc(-c2cc3n(C)c(C)c(CCC(=O)NC4CCC(C)CC4)c(=O)n3n2)cc(OC)c1OC (stereo unspecified) | inactive: -9.29% | 
76 | O=C(NCCc1csc(-c2cccc(F)c2)n1)c1ccco1 | inactive: 10.4% | 
77 | O=C(NC1CCCC1)c1ccc2c(c1)N(Cc1c(F)cccc1Cl)C(=O)c1ccccc1S2 | inactive: 0.0427% | 
78 | Cc1nn(CC(=O)NC(C)c2ccccc2)c(=O)c2cc3occc3n12 (stereo unspecified) | inactive: -0.304% | 
79 | COc1cccc2c1Oc1ncccc1N(C(=O)CCC(=O)NCc1ccc(OC(C)C)cc1)C2 | inactive: -0.278% | 
80 | CCOC(=O)C1=C(CN2CCN(c3ccc(Cl)cc3)CC2)NC(=O)NC1c1ccc(F)cc1 (stereo unspecified) | inactive: -7.3% | 
81 | NC(=O)COc1ccc(-c2noc(COc3ccc(Cl)cc3)n2)cc1 | inactive: 6.37% | 
82 | O=C(CSc1nc2c([nH]c3ccccc32)c(=O)n1-c1ccccc1)Nc1ccccc1C(F)(F)F | inactive: -4.54% | 
83 | NS(=O)(=O)c1ccc(CCNC(=O)Cn2c(=O)c3cccn3c3ccc(F)cc32)cc1 | inactive: -8.88% | 
84 | COc1ccc2c(c1)CC(C(=O)Nc1c(C)cc(C)cc1C)CO2 (stereo unspecified) | inactive: -2.39% | 
85 | Cc1[nH]c2ccccc2c1C1(O)C(=O)Nc2ccc(Cl)cc21 (stereo unspecified) | inactive: -8.33% | 
86 | COc1cc(CNCCCSc2nnnn2C)cc(Br)c1OC | inactive: 0.926% | 
87 | Cn1c(=O)n(C)c2cc(NS(=O)(=O)c3ccc(Cl)cc3)c(NCc3ccccc3)cc21 | inactive: -1.88% | 
88 | CCc1ccccc1-n1nnc(-c2nc(-c3ccccc3F)no2)c1C | inactive: 0.927% | 
89 | O=C(Nc1cccc(F)c1)C1CCN(c2nc3ccccc3nc2C(F)(F)F)CC1 | inactive: 6.46% | 
90 | Cc1ccc(-n2c3c(c(=O)[nH]c2=O)C(NC(=O)C(C)(C)C)(C(F)(F)F)C(=O)N3)cc1 (stereo unspecified) | inactive: -0.779% | 
91 | COc1ccc(OC)c(NC(=O)CCCOc2cc(=O)n(C)c3ccccc23)c1 | inactive: -5.53% | 
92 | COc1cccc(NC(=O)CSC2=Nc3ccccc3C3=NC(CCC(=O)NC4CCCCC4)C(=O)N23)c1 (stereo unspecified) | inactive: -4.25% | 
93 | COc1ccc(-c2c3c(=O)n(C)c(=O)n(C)c3c3n2-c2ccccc2NC3c2ccccc2OC)cc1 (stereo unspecified) | inactive: -6.79% | 
94 | COc1ccc(NC(=O)CSc2nc3ccccc3n2CC(=O)NCc2ccc(F)cc2)cc1 | inactive: -7.04% | 
95 | COC(=O)c1ccc(NC(=O)c2cc3cc(C)ccc3n2C)cc1 | inactive: 0.543% | 
96 | CCCCSCCCNC(=O)c1cn(CC)c2ccc(S(=O)(=O)N3CCOCC3)cc2c1=O | inactive: -0.204% | 
